Measured values from ChEMBL document CHEMBL4888484, “Replenishing the malaria drug discovery pipeline: Screening and hit evaluation of the MMV Hit Generation Library 1 (HGL1) against asexual blood stage Plasmodium falciparum ,using a nano luciferase reporter read-out” (2022).
Among all 150,000 compounds or so, about 540 (0.36%) showed an effect of 50% or more. This is one part of the list.

system: Plasmodium falciparum; experiment: Primary screen in NF54 nanoGlo assay, in single point, at 2uM, 72h; a lower Z score goes with more inhibition; type: functional, Erythrocyte; conditions: timepoint 72 hour

| Compound | % Inhibition [%] | Z score |
| --- | --- | --- |
| O=C(c1cc(O)nc2ccccc12)N1CCCOCC1 | -43 | 5 |
| Cc1nc(NCCNS(=O)(=O)c2cccs2)cc(N(C)C)n1 | -3 | 0.59 |
| CCc1onc(C)c1C(=O)N1CCC2(CC1)NC(=O)[C@H](C)O2 | 2 | -0.27 |
| CCN(CC)c1cc(CCC(=O)N(C)Cc2ccccc2)ccn1 | -6 | 0.91 |
| O=C(NCC1(CO)CCC1)Nc1cccc(C(F)(F)F)c1F | 16 | -2.07 |
| Cc1nc(Cc2c(C)n[nH]c2C)n(-c2cccnc2)n1 | -9 | 1.78 |
| CC(C)O[C@@H](C)c1n[nH]c(=O)n1-c1ccc2c(c1)OCO2 | -11 | 1.35 |
| c1nc(NC2CC3CCC2O3)cc(NC2CC3CCC2O3)n1 (stereo not given) | -8 | 0.68 |
| CCCN1CCN(C(=O)[C@H]2CCc3ncc(-c4ccsc4)n3C2)CC1 | -9 | 1.62 |
| Cc1c(C(=O)Nc2cnn(CC3CC3)c2)nnn1-c1ccc(Cl)cc1F | 1 | -0.17 |
| Cc1cc(C(=O)NCCn2c(C)cc(C)nc2=O)nc(C)n1 | -10 | 1.92 |
| CCN(Cc1cnn(C)c1)Cc1sccc1C | 0 | -0.06 |
| CNS(=O)(=O)c1cc(C(=O)NC2(c3cccc(C)c3)CCCC2)co1 | -15 | 1.98 |
| CN(Cc1ccoc1)C(=O)NCC1(c2ccccc2)CC1 | -3 | 0.32 |
| CC(=O)N1CCCN(S(=O)(=O)c2ccc3c(c2)CCCC3)CCNC(=O)[C@@H]2CCC[C@@H]21 | 31 | -3.48 |
| O=C(NCCc1cccnc1)N1CCC(C2CCOCC2)CC1 | -15 | 2.44 |
| O=C(NCCn1ccn2nccc12)c1ccc(S(=O)(=O)N2CCOCC2)cc1 | 1 | -0.17 |
| FC(F)(F)Cn1nc(Cc2cccs2)nc1CN1CCCC1 | -9 | 2 |
| CC[C@H](NC(=O)N1CCN(c2nccs2)CC1)c1cccc(Cl)c1 | 0 | 0.06 |
| Cc1ccc2c(OCc3ncnn3C)cccc2n1 | -9 | 1.21 |
| O=C(NCc1cccc2c1OCC2)[C@H]1CCc2[nH]cnc2C1 | -16 | 2.56 |
| CN(C)C(=O)[C@H]1CCN(C(=O)c2cc(Br)co2)C1 | 30 | -3.44 |
| O=C(NCc1cccnc1)N1CCN(C[C@H]2COCCO2)CC1 | 1 | -0.1 |
| O=C(COc1ccc2ccccc2c1)N[C@H]1CC(=O)N(c2ccc3c(c2)OCCO3)C1 | -17 | 3.28 |
| O=C(NC1CCCCCCC1)[C@H]1CCCN(c2ccc3cc(S(=O)(=O)N4CCCC4)ccc3n2)C1 | -3 | 0.38 |
| CC(C)(C)OC(=O)N1C[C@@H](O)CC1=O | 38 | -4.9 |
| NC(=O)c1nc2cc(NCc3cnc(C4CC4)nc3)ccc2o1 | -1 | 0.1 |
| O=C(C[C@H]1CCOC1)NCc1noc(Cc2cccs2)n1 | -9 | 1.62 |

| Compound | % Inhibition [%] | Z score |
| --- | --- | --- |
| Cc1nnc(N2CCO[C@H](c3nccs3)C2)c(C#N)c1C | -16 | 2.16 |
| Cc1nc(CN2CCN(C(=O)c3cccc4ccnn34)CC2)n[nH]1 | -8 | 1.71 |
| COCCN1CCN(CCOc2ccc(F)cc2)[C@H]2CS(=O)(=O)C[C@H]21 | -5 | 0.77 |
| CCOc1ccc2c(c1)C(C)=CC(C)(C)N2Cc1ccc(CN2c3ccc(OCC)cc3C(C)=CC2(C)C)cc1 | -7 | 1.4 |
| Cc1nnc([C@@H]2CC3(CCN(CC(C)C)CC3)CN2C(=O)c2ccccc2)o1 | 10 | -1.33 |
| Cc1cccc(=O)n1CCCN1Cc2ncccc2C1=O | -7 | 0.97 |
| COc1ccccc1O[C@@H](C)C(=O)N(C)CC1(C)COC1 | -1 | 0.13 |
| O=C(Nc1ccc(Oc2ccsc2C(=O)O)cc1)c1cccs1 | -1 | 0.12 |
| CCN(C)C(=O)C1CN(C(=O)c2ccc(Cl)cc2)CC1c1ccc(C)cc1 (stereo not given) | -11 | 1.03 |
| Cc1noc(C)c1C(=O)NCC1CCN(C(=O)c2cc3ccccc3s2)CC1 | -3 | 0.5 |
| COC(=O)C[C@H]1CCN(C(=O)Nc2cccnc2Oc2ccc(F)cc2)C1 | 3 | -0.62 |
| CCc1nc(N)nc(NCCN2CCOC2=O)c1C | 7 | -0.66 |
| CC(C)(C)c1nc(N2CCN(C(=O)CO)CC2)no1 | 0 | 0.03 |
| Cc1nc2ccc(NC(=O)CS(=O)(=O)Cc3ccccc3)cc2s1 | -17 | 3.18 |
| CC(=O)NCC(=O)NCc1ccnc(-c2ccco2)c1 | -2 | 0.33 |
| Cc1nc2n(c1C)CCN([C@@H](C(=O)NC1CC1)c1ccccc1)C2 | -9 | 1.28 |
| O=C(Cc1cc(-c2ccccc2)on1)NCc1ccco1 | -4 | 0.51 |
| CCOCCC(=O)N1CCN(C(=O)CCOCC)[C@H](C#N)C1 | -18 | 2.35 |
| COCc1nc(C)c(C(=O)N2CCC[C@]3(CCCOC3)C2)s1 | -7 | 0.98 |
| CCc1nc(C(C)NC(=O)N2CCC(CS(C)(=O)=O)C2)cs1 (stereo not given) | -6 | 0.6 |
| COc1cccc2sc(N3CC(C(=O)NCC(F)(F)F)C3)nc12 | -7 | 1.38 |
| COCCn1nnnc1[C@]1(N2CCOCC2)CCCN(C(=O)Cn2nc(C)cc2C)C1 | -12 | 1.56 |
| Cc1ccc(Oc2ncccc2CNC(=O)c2cccc(F)c2)cn1 | -13 | 1.21 |
| Cc1ccc(O)c(CNCC2(c3ccccc3Cl)CCOCC2)n1 | 98 | -10.48 |
| CCN(C(=O)c1ncccc1C)C1CCOCC1 | -1 | 0.26 |
| O=C1CCC(C(=O)N2CCC(c3nccn3Cc3ccccc3)CC2)=NN1 | -2 | 0.25 |
| Cn1c(CN2CCN(c3ccc(O)cc3)CC2)cc(=O)n(C)c1=O | 6 | -0.89 |
